# According to PubChem BioAssay AID686979 (National Center for Advancing Translational Sciences (NCATS), 2013):
# Among all 420,000 compounds or so, about 50,000 (12%) were called active. This list was built around the results that the source calls inconclusive (neither active nor inactive); the mix of calls is not that of the screen. Calls follow the shape of the dose curve; as a rule, active = well fitted inhibition curve with a large enough effect; inconclusive = small, poorly fitted or top-dose-only effect; inactive = flat fitted curve, though single readings scatter. No potency is given beside an inconclusive call; the fits are too rough.
# Experiment: qHTS for Inhibitors of human tyrosyl-DNA phosphodiesterase 1 (TDP1): qHTS in cells in presence of CPT; also: nearly all actives have a fitted effect of over 55% in size
# Conditions: chicken DT40 Tdp1-/-;hTDP1 cells + 20 nM CPT, ATP luminescence, 48 h; series mostly up to 46.2 µM
# Outline: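 Chicken DT40 Tdp1-/- cells stably complemented with human TDP1 were seeded at 400 cells/well in medium containing 20 nM camptothecin, exposed to pin-transferred compounds, and grown at 37 °C for at least 48 hr. Viability was read as ATP luminescence.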
# Potency is read from the fitted curve at half-maximal effect; tags tell the direction and shape of the fitted curve.
row,Structure (SMILES),Potency
1,CCOc1ccc(Nc2ncnc3scc(-c4ccc(OC)cc4)c23)cc1,"inconclusive [inhibitor, single point]"
2,Cc1cc(CNC(=O)COc2c(F)c(F)cc(F)c2F)c2ccccc2n1,"inconclusive [inhibitor, single point]"
3,COc1ccc2c(-c3ccc(SC)cc3)c(-c3ccc(S(C)(=O)=O)cc3)sc2c1,"inconclusive [inhibitor, single point]"
4,O=C(CCCSc1nc2ccccc2[nH]1)N1CCN(c2ccc([N+](=O)[O-])cc2)CC1,active: 10.3 µM
5,CCc1ccc(NS(=O)(=O)c2ccc(OC)c(C)c2)cc1,"inconclusive [inhibitor, single point]"
6,COc1cccc(CN2CCN(Cc3[nH]c4ccccc4c3C)CC2CCO)c1 (stereo not given),"inconclusive [inhibitor, single point]"
7,O=C(Nc1cccc(Cl)c1)Nc1ccc2nccnc2c1,"inconclusive [inhibitor, single point]"
8,c1ccc(Sc2cnc3ccccc3n2)cc1,"inconclusive [inhibitor, full curve, poor fit]"
9,COCCN(Cc1cc2cc(C)ccc2nc1Cl)C(=O)Nc1ccccc1OC,active: 16.4 µM
10,CCOc1ccc2cc(C3CC(c4ccco4)=NN3S(C)(=O)=O)c(=O)[nH]c2c1 (stereo not given),inactive
11,CCOC(=O)N1CCN(C(=O)c2cc3c(s2)-c2ccc(Cl)cc2S(=O)(=O)C3)CC1,"inconclusive [inhibitor, single point]"
12,Cc1ccc(-c2n[nH]c(=S)n2/N=C/c2cccs2)cc1,inactive
13,CCOC(=O)C1=C(C)NC(=O)N(C(C)=O)C1c1ccc(Cl)cc1 (stereo not given),"inconclusive [inhibitor, single point]"
14,O=[N+]([O-])c1ccc(Cl)cc1Sc1nc2ccccc2o1,"inconclusive [inhibitor, single point]"
15,COc1ccc(C(=O)c2[nH]c(N)c(C(=O)NCCc3c[nH]c4ccccc34)c2-c2c(F)cccc2Cl)cc1,active: 16.4 µM
16,O=C(OCCNc1ncc(C(F)(F)F)cc1Cl)c1ccc(S(=O)(=O)N2CCOCC2)cc1,inactive
17,O=C(Nc1ccccc1)c1ccc(NCc2cccnc2)c(S(=O)(=O)N2CCOCC2)c1,inactive
18,N#CCCN1CCN(C(=S)c2ccc(-c3ccc(Cl)cc3)o2)CC1,"inconclusive [inhibitor, single point]"
19,Cc1ccc(-c2ccccc2NC(=O)CCl)o1,active: 14.6 µM
20,COc1ccc(OC)c(N=Cc2c(O)c3ccccc3oc2=O)c1,"inconclusive [inhibitor, single point]"
